Assay results from the antibiotic and cytotoxicity screens of Wong et al. (2023).
The list shows a part of the results.

Each compound was assayed on S. aureus RN4220 (assay: growth inhibition call (relative growth <= 0.2)). Details: 50 µM.

Growth inhibition call, inactive:
CC[C@@H](N)C12CC3CC(CC(C3)C1)C2, C[C@H]1CN([C@@H](C)CO)S(=O)(=O)c2ccc(-c3cncnc3)cc2O[C@H]1CN(C)C(=O)Cc1ccncc1, Cl.NCc1ccc(S(N)(=O)=O)cc1, C[C@@H]1CCCCO[C@@H](CN(C)C(=O)Nc2ccc3c(c2)OCO3)[C@H](C)CN([C@H](C)CO)C(=O)c2cc(NC(=O)c3ccccc3)ccc2O1, C[C@@H]1CCCCO[C@@H](CN(C)C(=O)CCCN(C)C)[C@@H](C)CN([C@@H](C)CO)C(=O)c2cc(NC(=O)Nc3ccc(C(F)(F)F)cc3)ccc2O1, Cc1ccc(S(=O)(=O)N2C[C@H](O)COC[C@H]3O[C@@H](CC(=O)N[C@H]4CCN(Cc5ccccc5)C4)CC[C@@H]32)cc1, CC(C)(C)NC[C@@H](O)CSc1nc(-c2ccc(C(N)=O)s2)cs1, COCC#Cc1ccc2c(c1)O[C@H](CN(C)S(=O)(=O)c1ccc(F)cc1)[C@H](C)CN([C@H](C)CO)S2(=O)=O, C[C@@H]1CCCCO[C@@H](CN(C)S(=O)(=O)c2ccccc2)[C@@H](C)CN([C@@H](C)CO)C(=O)c2cc(NS(=O)(=O)c3ccc(Cl)cc3)ccc2O1, C[C@@H]1CN([C@H](C)CO)C(=O)c2cc(NS(=O)(=O)c3ccc(Cl)cc3)ccc2O[C@@H](C)CCCCO[C@H]1CN(C)C(=O)Nc1ccc2c(c1)OCO2, C[C@H]1CN([C@@H](C)CO)C(=O)c2cccc(NC(=O)C3CCOCC3)c2O[C@H]1CN(C)Cc1ccc(C(=O)O)cc1, COc1ccc(NC(=O)Nc2cccc3c2O[C@H](CN(C)S(C)(=O)=O)[C@H](C)CN([C@H](C)CO)C3=O)cc1, CO[C@H]1CN(C)C(=O)c2cc(NC(=O)C3CC3)ccc2OC[C@H](C)N(C(=O)Cc2ccccn2)C[C@H]1C, COC(=O)C[C@H]1CC[C@H]2[C@H](COc3ccc(NS(=O)(=O)c4ccccc4Cl)cc3C(=O)N2C)O1, NCC1CCOCC1, Nc1nonc1C(=O)OCC(=O)c1ccccc1, Nc1ncnc2c1nc(Br)n2[C@H]1O[C@H]2COP(=O)(O)O[C@@H]2[C@@H]1O, CC(C)CC#Cc1ccc2c(c1)O[C@@H](CN(C)Cc1cncnc1)[C@H](C)CN([C@@H](C)CO)S2(=O)=O, C1CC1c1noc(C2CNC2)n1, COc1ccc(NC(=O)Nc2ccc3c(c2)C(=O)N([C@@H](C)CO)C[C@@H](C)[C@H](CN(C)C(=O)c2ccccc2)OCCCC[C@H](C)O3)cc1, COc1ccccc1-c1ccc2c(c1)O[C@H](CN(C)C(=O)c1ccncc1)[C@H](C)CN([C@H](C)CO)S2(=O)=O, C[C@H](CO)N1C[C@H](C)[C@H](CN(C)C(=O)C2CCCCC2)Oc2cc(C#CC3CC3)ccc2S1(=O)=O, NCC[C@H]1CC[C@@H](NC(=O)C2CCCC2)[C@H](CO)O1, C[C@@H]1CN([C@H](C)CO)C(=O)c2c(c3ccccc3n2C)-c2ccccc2CO[C@H]1CN(C)Cc1ccccc1, COc1cc2c(cc1OC)CN(C(=O)[C@@H]1[C@H]3C(=O)O[C@H](c4ccccc4)[C@H](c4ccccc4)N3[C@H](c3ccc(O)cc3)[C@@]13C(=O)Nc1ccc(C#CCCO)cc13)CC2, CC1(C)SCCN(S(=O)(=O)c2ccc(OCC#CCO)cc2)[C@H]1C(=O)NO, COc1ccc(CN(C)C[C@@H]2Oc3c(NC(=O)Nc4ccc(C(F)(F)F)cc4)cccc3C(=O)N([C@@H](C)CO)C[C@H]2C)cc1, Cc1noc(C)c1S(=O)(=O)N(C)C[C@@H]1Oc2ccc(NS(=O)(=O)c3ccccc3)cc2CC(=O)N([C@@H](C)CO)C[C@H]1C, COc1ccc(S(=O)(=O)N[C@H]2C=C[C@@H](CC(=O)NCCc3ccncc3)O[C@H]2CO)cc1, O=C(NCCN1CCOCC1)[C@@H]1c2ccccc2C(=O)N(Cc2cc(C(F)(F)F)cc(C(F)(F)F)c2)[C@H]1c1ccc(CO)cc1, Cc1ccc(S(=O)(=O)N(C)C[C@@H]2OCCCC[C@H](C)Oc3ccc(NC(=O)c4ccccc4)cc3C(=O)N([C@@H](C)CO)C[C@H]2C)cc1, CCC[C@@H](O)C#Cc1cnc2c(c1)C(=O)N([C@H](C)CO)C[C@H](C)[C@H](CN(C)C(=O)Nc1ccccc1)O2
